# Measured values as given in the supplement of paper PMC11417369.
# The other results are listed elsewhere or left out.
# System: PfHDP1 homeodomain (GST-tagged)
# Assay: gcPBM binding intensity (ln(normalized median fluorescence intensity)); higher = stronger DNA binding
# In short: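 Each value is the highest Masliner-normalised natural-log median intensity across replicate spots of either orientation of a probe. The probes were primer-extended double-stranded 36-bp intergenic genomic sequences on an Agilent 4 × 180k array, alongside negative controls, exposed for 1 h to GST-tagged P. falciparum DNA-binding domains expressed in E. coli. Bound protein was picked up with Alexa488 anti-GST antibody and scanned at 488 nm.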
row,Sequence,gcPBM binding intensity (ln)
1,CCACATGATATGATTACACACATATATATATTTACA [CACACA_site164],6.77
2,ATTCTATTATAATACACACCCAAATATTAAAAAGAT [CACACA_site2960],7.79
3,GATGTTGCAAAATTCTGTACATATAAATGTATACAT [XGTACX_site5009],9.15
4,TATTATATATATATATGTACATATATATGCTAAAAA [XGTACX_site5297],6.67
5,TGTGTAGGGGATATTCTACTTTAAAAATAAATATAT [CACACA_negctrl_site207],6.71
6,TATAAAAGATTGGAATGTACATAAGAAAAAAATATA [XGTACX_site5028],6.94
7,GGCCCAACTTCTTCTGACGAAAACGTAAATTGTGTG [XGTACX_negctrl_site533],6.58
8,AATCATATTAGTATGGTGCAACATATATAAATATAT,11
9,TTCAAGATTTATTATACACACATATTAATATTTATA [CACACA_site6413],6.93
10,GTAACATTTTAAATATATACATATAATGTATTTATA [GTGCAC_negctrl_site344],6.25
11,TGTTGTATCAATTTTTGTACATAACACATATGTATA [XGTACX_site3666],6.18
12,ATTAAACCGTGGGAGCACACACACACACACACACAT [TGCATGCA_negctrl_site72],7.17
13,ATATATATATTATGGGGTACAAACATCAAAAGATTT [XGTACX_site3944],7.96
14,ATTAATTAAAAGGGAACACATAGAAATTATAAAACA [GTGCAC_negctrl_site420],7.01
15,ACACAAGCACACAAATGTACATATATATATATATAT [XGTACX_site5146],9.4
16,GGAAAAAAAAATAAATGTACGAATTAACATATCAAA [XGTACX_site5653],6.3
17,ACACATATATTAAATGTGCACTGAAATATGCATATA [GTGCAC_site9936],9.68
18,ACTTGTAAGAGACACACACACACACGGATATAAATA [CACACA_site6517],6.79
19,TTATTTTCCCTTTGTGCATGCAGTTTACTTTTTGTG [TGCATGCA_site993],8.61

row,Sequence,gcPBM binding intensity (ln)
1,ATATATGTATATTTATGTACGTATTCCTGTATAGTC [XGTACX_site5763],6.51
2,CAAAATAAAAATAACACACACATTTATTTATATACA [CACACA_site6679],6.62
3,AATATTACAATTTGGTGTACAGGTGCACATGCCTCA [XGTACX_site1730],9.16
4,TAGCTTATAAGATATGCACACACAACACTTACAAAA [CACACA_site8174],9.5
5,TCTACAATTTTAATTACACACTATAAAAAAGAAAGA [CACACA_site5624],6.65
6,ATAATGAAAACAAGCACACATACATAAAATAAAATA [CACACA_site3257],6.84
7,ATAAATTTTTAAACAGCACACATAAATATAATATAT [CACACA_site8691],6.85
8,TTTTGTTATTATAAATAGTAACATTTGTGAATATAT [TGCATGCA_negctrl_site132],6.42
9,AAGACATTTTTTTGTTGTACGTCTTCATTTATTGTA [XGTACX_site2890],6.58
10,TTTAAAATTATAAGGATTAAAAAAAAAAAAAATAAA [CACACA_negctrl_site114],6.19
11,AACAAATAAAAAAAAATAAAAATAAAAATAAAAAAA [XGTACX_negctrl_site451],6.36
12,AAGAATTATATTAATAGTACATATATATTAATTTAT [XGTACX_site5713],6.25
13,TTATTTATGAAGTATACACACAATATAGATTTATAT [CACACA_site6703],6.57
14,CTGTAAAAAATATAAACACACATAGAGATATATAAA [CACACA_site6292],6.53
15,TTTAATGTTACTCCTTGTACACAAAATAGTGTTATA [XGTACX_site8416],6.6
16,TAAGTATATTTTATATGTACTTATATATTTAATTTT [XGTACX_site4615],5.62
17,TATTAATATGGTAATACACACTAATATACTTTTGTT [CACACA_site6860],6.59
18,ATATATATATATATATGTACGTATTCATAAACAACA [XGTACX_site4282],9.27
19,TTAATATATTATCTGGTGCATAAACACGTTATACCT,10.6

row,Sequence,gcPBM binding intensity (ln)
1,CAGTATTACATGAGGACACACACAAAAAAAATATAT [CACACA_site8156],6.87
2,ATGATTTCACAAGACACACACATACAAATTTATATA [CACACA_site3909],6.73
3,TATTTTATATTTTATGCACACTTATAAGAAATATGT [CACACA_site5647],9.42
4,CAAGCTTTTTCCTTTACACACATTAGTTATTTATAT [CACACA_site6781],6.83
5,ATAGGTTCCCAAAATGCACACCAATGAAATTATTTA [CACACA_site8081],9.34
6,ATATTATTTTAAAGTACACACATATATTAAGATATA [CACACA_site5306],6.6
7,CATACAGATATATATACACACATACAGATAAATACA [CACACA_site4592],6.87
8,GGTAATTTTTTTTAAATACACACTGAAATGTGAATT [CACACA_site564],6.61
9,AACATACATAAACACACACACACACCCACAGAGACA [CACACA_site4430],6.97
10,CTTATAAAAAAAAAAACATGCAACAGTAAAGAACAA [TGCATGCA_site892],7.33
11,AAAAAAATAAGTATTGAACAATTAAGGAAAAACATG [GTGCAC_negctrl_site464],6.7
12,TTTTTTCAATTTTTTTTAAATAAACCACAAAAAAAA [CACACA_negctrl_site1701],5.89
13,AAACTATAATATATTACACACATATATTTTATAAGT [CACACA_site6460],6.47
14,AAATAAAAAAAGAAACGTACATATATTGGTTTCGTC [XGTACX_site3510],6.24
15,TAATGTAAAATTTAGAGTACATAAAAAATTGGATGA [XGTACX_site7225],6.68
16,AATTGAATTTTAAAAGAAAAAAAAAAAAAAAAATAA [XGTACX_negctrl_site195],5.92
17,GGAATAGTAATATATACACACAAATACAGATATATA [CACACA_site4213],6.73
18,TGGAGGTCAGTTCACAGTACCCAGAAACTCTACGGA [XGTACX_site4927],5.97
